Laboratory results: PMC9594046, “Identification of Histone Peptide Binding Specificity and Small-Molecule Ligands for the TRIM33α and TRIM33β Bromodomains” (ACS Chemical Biology, 2022)

Legend:
Test in all cases: AlphaScreen dose-response displacement of biotinylated H3 peptide
TRIM24 PHD-BRD = biological target: T1, TRIM24 PHD-BRD (Homo sapiens, UniProt O15164)
T1 sequence (O15164 with tags, fused parts or gaps): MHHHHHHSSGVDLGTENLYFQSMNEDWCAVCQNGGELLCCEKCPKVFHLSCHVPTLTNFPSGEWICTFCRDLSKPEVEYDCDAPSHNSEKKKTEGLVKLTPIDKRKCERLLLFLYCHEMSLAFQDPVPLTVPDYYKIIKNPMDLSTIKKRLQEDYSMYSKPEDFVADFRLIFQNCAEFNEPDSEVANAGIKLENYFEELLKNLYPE

TRIM33α PHD-BRD = biological target: T2, TRIM33α PHD-BRD (Homo sapiens, UniProt Q9UPN9)
T2 sequence (Q9UPN9 888-1127): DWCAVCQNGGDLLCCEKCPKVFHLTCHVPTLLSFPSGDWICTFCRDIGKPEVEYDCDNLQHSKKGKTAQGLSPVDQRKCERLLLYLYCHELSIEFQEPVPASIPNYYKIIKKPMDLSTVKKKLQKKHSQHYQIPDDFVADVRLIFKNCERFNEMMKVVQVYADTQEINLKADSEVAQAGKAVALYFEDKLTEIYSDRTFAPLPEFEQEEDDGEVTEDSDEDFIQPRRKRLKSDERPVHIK

TRIM33β PHD-BRD = biological target: T3, TRIM33β PHD-BRD (Homo sapiens, UniProt Q9UPN9)
T3 sequence (Q9UPN9 888-1110 isoform Q9UPN9-2 limits assumed): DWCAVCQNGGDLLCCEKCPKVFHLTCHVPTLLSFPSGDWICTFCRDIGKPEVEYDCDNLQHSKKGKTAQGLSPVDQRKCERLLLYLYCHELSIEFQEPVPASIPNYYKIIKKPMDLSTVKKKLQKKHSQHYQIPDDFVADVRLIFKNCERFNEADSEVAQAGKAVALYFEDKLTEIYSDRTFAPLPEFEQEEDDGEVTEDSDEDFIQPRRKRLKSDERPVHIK

[1] = peptide in assay H31-27K9Me3 (PHD)
[2] = peptide in assay H31-27K9Me3K18Ac (DUAL)
[3] = peptide in assay H31-27K18Ac (BRD)

| IC50 (TRIM24 PHD-BRD; [1]) [µM] | IC50 (TRIM24 PHD-BRD; [2]) [µM] | IC50 (TRIM24 PHD-BRD; [3]) [µM] | IC50 (TRIM33α PHD-BRD; [1]) [µM] | IC50 (TRIM33α PHD-BRD; [2]) [µM] | IC50 (TRIM33α PHD-BRD; [3]) [µM] | IC50 (TRIM33β PHD-BRD; [1]) [µM] | IC50 (TRIM33β PHD-BRD; [2]) [µM] | IC50 (TRIM33β PHD-BRD; [3]) [µM] | Structure (SMILES) |
| --- | --- | --- | --- | --- | --- | --- | --- | --- | --- |
| > 250 | > 250 | 103 ± 1.23 | > 250 | 14.1 ± 1.62 | 2.79 ± 0.83 | > 250 | 126 ± 2.23 |  | Cn1c(=O)n(C)c2cc(CNCCc3ccc(S(N)(=O)=O)cc3)ccc21 [Compound 8] |
| 41.8 ± 5.11 | 62.2 ± 4.15 | 41.7 ± 7.82 | 43.2 ± 5.67 | 56.5 ± 10.3 | 51.8 ± 3.87 | 78.6 ± 9.72 | 111 ± 13.5 | 59.4 ± 5.73 | O=C(CN1CCOC(c2cncc(-c3cccc(F)c3)n2)C1)NCc1ccccn1 (centres unmarked) [Compound 9] |
